# Data taken from paper PMC11995724, “Antibiotic target discovery by integrated phenotypic and activity-based profiling of electrophilic fragments” (Cell chemical biology, 2025).
# Screen size: about 3,200 compounds; about 110 (3.4%) showed an effect of 50% or more. Some of the results follow.
# Tested on: T1, V. cholerae SAD30
# T1 construct: SAD30
# Parameters: species or system S. aureus MSSA476 (TSB) or V. cholerae SAD30 (LB); 384-well bacterial growth screen at 25 uM, OD600 relative to DMSO control
# Settings: relative growth, OD600, LB; 25 µM; inhibitor
row,Compound,% of control remaining [%]
1,"CCn1nc(C)c(C=C(C#N)C(=O)Nc2ccccc2Cl)c1C [9-F07, N-(2-chlorophenyl)-2-cyano-3-(1-ethyl-3,5-dimethyl-1H-pyrazol-4-yl)prop-2-enamide]",87.2196
2,"C=CC(=O)Nc1ccccc1CCSC [1-A19, N-{2-[2-(methylsulfanyl)ethyl]phenyl}prop-2-enamide]",86.846
3,"C=CC(=O)N1CCC(Cc2ccnn2C)CC1 [2-C19, 1-{4-[(1-methyl-1H-pyrazol-5-yl)methyl]piperidin-1-yl}prop-2-en-1-one]",93.747
4,"C=CC(=O)N(C)Cc1c(C)nn(C)c1Cl [1-C15, N-[(5-chloro-1,3-dimethyl-1H-pyrazol-4-yl)methyl]-N-methylprop-2-enamide]",89.3871
5,"C=CC(=O)N1CCN(C(=O)c2ccc(OC)c(OC)c2OC)CC1 [1-H12, 1-[4-(2,3,4-trimethoxybenzoyl)piperazin-1-yl]prop-2-en-1-one]",105.25
6,"CCC(NC(=O)CCl)c1ccc(Cl)cc1 (stereo not shown) [6-O10, 2-chloro-N-[1-(4-chlorophenyl)propyl]acetamide]",91.7623
7,"C=CC(=O)N1CCC(C(=O)NCc2nc(C)c(C)s2)CC1 [3-B12, N-[(4,5-dimethyl-1,3-thiazol-2-yl)methyl]-1-(prop-2-enoyl)piperidine-4-carboxamide]",104.087
8,"N#CC(=CC=Cc1ccccc1[N+](=O)[O-])C(N)=O [8-F19, 2-cyano-5-(2-nitrophenyl)penta-2,4-dienamide]",73.8953
9,"C=CC(=O)NCc1cnc(C)n1-c1ccccc1 [2-F19, N-[(2-methyl-1-phenyl-1H-imidazol-5-yl)methyl]prop-2-enamide]",94.6734
10,"CCOc1ccc(NC(=O)C(C)Cl)cc1 (stereo not shown) [6-O09, 2-chloro-N-(4-ethoxyphenyl)propanamide]",88.5771
11,"C=CC(=O)N(C[C@H]1CCCO1)C1CCC(CC)CC1 (stereo partly drawn) [1-D03, N-(4-ethylcyclohexyl)-N-{[(2R)-oxolan-2-yl]methyl}prop-2-enamide]",102.691
12,"C=CC(=O)N1CCC[C@H]1Cn1cc(C2CC2)nn1 [1-L18, 1-[(2S)-2-[(4-cyclopropyl-1H-1,2,3-triazol-1-yl)methyl]pyrrolidin-1-yl]prop-2-en-1-one]",107.704
13,"CCc1ccc(NC(=O)C(C#N)=Cc2ccc(F)c(C#N)c2)cc1 [8-M20, 2-cyano-3-(3-cyano-4-fluorophenyl)-N-(4-ethylphenyl)prop-2-enamide]",63.6982
14,"Cc1cccc(N(Cc2ccccc2)C(=O)CCl)c1 [6-O07, N-benzyl-2-chloro-N-(3-methylphenyl)acetamide]",92.2173
15,"Cc1cc(-n2c(C)cc(C(=O)CCl)c2C)no1 [10-C18, 2-chloro-1-[2,5-dimethyl-1-(5-methyl-1,2-oxazol-3-yl)-1H-pyrrol-3-yl]ethan-1-one]",106.137
16,"O=C(CCl)c1ccc(C(F)(F)F)cc1 [10-B10, 2-chloro-1-[4-(trifluoromethyl)phenyl]ethan-1-one]",79.174
17,"Cc1ccc(NC(=O)C(C#N)=Cc2cccc([N+](=O)[O-])c2)cc1 [8-J17, 2-cyano-N-(4-methylphenyl)-3-(3-nitrophenyl)prop-2-enamide]",70.9041
18,"C=CCNC(=O)C(C#N)=Cc1cccc(O)c1 [9-B09, 2-cyano-3-(3-hydroxyphenyl)-N-(prop-2-en-1-yl)prop-2-enamide]",85.9959
19,"C=CC(=O)Nc1ccc(Cl)cc1F [1-I10, N-(4-chloro-2-fluorophenyl)prop-2-enamide]",88.0419
20,"CCCCNC(=O)C(C#N)=Cc1ccc(F)cc1 [9-P13, N-butyl-2-cyano-3-(4-fluorophenyl)prop-2-enamide]",87.2196
21,"N#CC(=Cc1cc(F)ccc1F)C(=O)Nc1ccc(Cl)cc1Cl [8-O08, 2-cyano-N-(2,4-dichlorophenyl)-3-(2,5-difluorophenyl)prop-2-enamide]",74.847
22,"C=CC(=O)NCc1nonc1C [2-H07, N-[(4-methyl-1,2,5-oxadiazol-3-yl)methyl]prop-2-enamide]",91.1223
23,"CC(Cl)C(=O)NCc1cnc(N2CCOCC2)s1 (stereo not shown) [6-P05, 2-chloro-N-{[2-(morpholin-4-yl)-1,3-thiazol-5-yl]methyl}propanamide]",102.531

row,Compound,% of control remaining [%]
1,"CC(Cl)C(=O)NC(C)C(=O)Nc1ccc(-n2cncn2)cc1 (stereo not shown) [7-P07, 2-chloro-N-(1-{[4-(1H-1,2,4-triazol-1-yl)phenyl]carbamoyl}ethyl)propanamide]",79.9604
2,"C=CC(=O)NCCC(=O)Nc1c(C)c(C)nn1C [2-G12, N-{2-[(1,3,4-trimethyl-1H-pyrazol-5-yl)carbamoyl]ethyl}prop-2-enamide]",77.3811
3,"CCOc1ccc(NC(=O)CCl)cc1S(=O)(=O)N1CCCC1 [4-J16, 2-chloro-N-[4-ethoxy-3-(pyrrolidine-1-sulfonyl)phenyl]acetamide]",105.586
4,"CCS(=O)(=O)N1CCc2cc(C(=O)CCl)ccc21 [10-E18, 2-chloro-1-[1-(ethanesulfonyl)-2,3-dihydro-1H-indol-5-yl]ethan-1-one]",27.8979
5,"C=CC(=O)N1CCC(C(=O)NC(C)CC2CC2)CC1 (stereo not shown) [3-M05, N-(1-cyclopropylpropan-2-yl)-1-(prop-2-enoyl)piperidine-4-carboxamide]",99.853
6,"N#CC(=Cc1ccc(-c2ccccc2)cc1)C(=O)N1CCCC1 [9-B08, 3-{[1,1'-biphenyl]-4-yl}-2-(pyrrolidine-1-carbonyl)prop-2-enenitrile]",81.7811
7,"COc1ccc(NC(=O)CCl)cc1S(=O)(=O)N1CCCCC1 [4-B08, 2-chloro-N-[4-methoxy-3-(piperidine-1-sulfonyl)phenyl]acetamide]",110.244
8,"C=CC(=O)NC(Cn1ccccc1=O)c1ccccc1 (stereo not shown) [2-B21, N-[2-(2-oxo-1,2-dihydropyridin-1-yl)-1-phenylethyl]prop-2-enamide]",101.776
9,"C=CC(=O)N1CCC(C(=O)N(C)C(C)Cc2ccc(C)cc2)CC1 (stereo not shown) [2-F14, N-methyl-N-[1-(4-methylphenyl)propan-2-yl]-1-(prop-2-enoyl)piperidine-4-carboxamide]",87.108
10,"COc1ccc(NC(=O)C(C#N)=Cc2ccc(-c3ccccc3)cc2)cc1 [8-D11, 3-{[1,1'-biphenyl]-4-yl}-2-cyano-N-(4-methoxyphenyl)prop-2-enamide]",76.7505
11,"O=C(CCl)NCCc1cnn(-c2ccccc2)c1 [6-G22, 2-chloro-N-[2-(1-phenyl-1H-pyrazol-4-yl)ethyl]acetamide]",109.053
12,"C=CC(=O)N1CCc2cc(C(N)=O)ccc21 [1-P03, 1-(prop-2-enoyl)-2,3-dihydro-1H-indole-5-carboxamide]",106.876
13,"Cc1cc(C(=O)C(C)Cl)c(C)n1-c1ccccc1 (stereo not shown) [10-A06, 2-chloro-1-(2,5-dimethyl-1-phenyl-1H-pyrrol-3-yl)propan-1-one]",102.24
14,"CC(C)(C)c1ccc(CC(=O)CCl)cc1 [10-G19, 1-(4-tert-butylphenyl)-3-chloropropan-2-one]",116.579
15,"C=CC(=O)N1CCC(C(=O)NCc2cnn(-c3ccccc3)c2)CC1 [3-O14, N-[(1-phenyl-1H-pyrazol-4-yl)methyl]-1-(prop-2-enoyl)piperidine-4-carboxamide]",100.206
16,"CC1CSc2ccc(Cl)cc2N(C(=O)CCl)C1 (stereo not shown) [5-J05, 2-chloro-1-(7-chloro-3-methyl-2,3,4,5-tetrahydro-1,5-benzothiazepin-5-yl)ethan-1-one]",108.942
17,"CCN(Cc1ccc(C(F)(F)F)cc1)C(=O)CCl [7-H20, 2-chloro-N-ethyl-N-{[4-(trifluoromethyl)phenyl]methyl}acetamide]",79.4317
18,"CSc1nsc(NC(=O)CCl)n1 [4-C13, 2-chloro-N-[3-(methylsulfanyl)-1,2,4-thiadiazol-5-yl]acetamide]",97.3043
19,"Cc1ccc(F)c(N2CCC(NC(=O)CCl)CC2)c1 [5-M14, 2-chloro-N-[1-(2-fluoro-5-methylphenyl)piperidin-4-yl]acetamide]",83.2195
20,"C=CC(=O)N1CCC(C(=O)NC(C)(C)CSC)CC1 [3-M14, N-[2-methyl-1-(methylsulfanyl)propan-2-yl]-1-(prop-2-enoyl)piperidine-4-carboxamide]",97.3828
21,"CCN(CC)S(=O)(=O)c1cc(NC(=O)CCl)ccc1C [4-E09, 2-chloro-N-[3-(diethylsulfamoyl)-4-methylphenyl]acetamide]",97.6493
22,"C=CC(=O)NC1(c2ccccc2)CCOC1 (stereo not shown) [3-P04, N-(3-phenyloxolan-3-yl)prop-2-enamide]",116.262
23,"CC(Cc1c[nH]c2cc(F)c(F)cc12)NC(=O)CCl (stereo not shown) [5-I07, 2-chloro-N-[1-(5,6-difluoro-1H-indol-3-yl)propan-2-yl]acetamide]",96.8372
